Screen size: about 52,000 compounds; about 4,300 (8.3%) were called active. No stated cut-off is given here; in the data, active means survival mostly below about 52% (no sharp cut-off); inactive means mostly above about 56%. The list shows a part of the results.
What follows are molecules tested on DeltatarO mutant (assay: S. aureus survival, RN4220 and DeltatarO strains – OD600, teichoic acid synthesis inhibitors, primary screen (AID 463173)). Settings: S. aureus RN4220 wild type/DeltatarO growth, OD600, 18 h, hits give low values, screened at 18.75 µg/mL (by protocol).
In the case of `COc1ccc(CNC(=O)C2CCCN(S(=O)(=O)c3ccc4c(ccn4C)c3)C2)c(OC)c1` (stereo not given), the survival was active: 25%. In the case of `Cc1ccc2c(=O)cc(C(=O)NCc3ccccc3)oc2c1`, the survival was active: 39%. For `CCOc1ccc2nc(N3CCN(C(=O)c4ccco4)CC3)sc2c1`, the survival was inactive: 70%. With `COc1ccc(NC(C)=O)cc1NC(=O)C1(c2cccs2)CCOCC1` the survival was inactive: 76%. In the case of `COc1ccc(C(=O)NCC(c2ccc3c(c2)OCO3)N2CCN(C)CC2)cc1` (stereo not given), the survival was active: 47%. For `O=S(=O)(c1ccc(F)cc1)N(CC(O)Cn1c2ccccc2c2ccccc21)c1ccccc1` (stereo not given), the survival was inactive: 55%. For `CCOc1ccc(CCNC(=O)c2nnc(Cc3ccc(Cl)cc3Cl)o2)cc1OCC`, the survival was inactive: 83%. With `COc1cc(OC)c(N(C)C(=O)c2c(C)oc3ncnc(N4CCCCC4)c23)cc1Cl` the survival was inactive: 72%. `O=C(c1ccco1)N1CCCN(C(=O)c2ccco2)CC1` was tested, and the survival was inactive: 67%. In the case of `Cc1oc(-c2ccccc2F)nc1CS(=O)CC(=O)NC(C)C` (stereo not given), the survival was inactive: 89%. In the case of `COc1ccc(OC)c(NC(=O)c2cccc3c2C(=O)N(C2CCCCC2)C3)c1`, the survival was inactive: 69%. For `N#Cc1c(NC(=O)c2cccs2)sc2c1CCCCC2`, the survival was inactive: 87%. With `Cc1cccc(Cn2c(CNS(=O)(=O)c3ccc(C(C)C)cc3)nc3cccnc32)c1` the survival was inactive: 75%. For `CCc1ccc(-n2nc(CO)c(C(=O)NCCc3ccccc3)n2)cc1`, the survival was inactive: 51%. With `O=C(CSc1nc2c([nH]c3ccccc32)c(=O)n1-c1ccc(F)cc1)N1CCc2ccccc21` the survival was inactive: 95%. `Cc1ccc(C)c(N2CCN(C(=O)Cc3c(C(=O)O)c(C)cn3C)CC2)c1` was tested, and the survival was inactive: 101%. With `Cc1cc(C)cc(-n2c(SCC(=O)N3CCC(C)CC3)nc3c([nH]c4ccccc43)c2=O)c1` the survival was active: 17%. For `COc1cccc(C(=O)N2CCCCC2CCN2CCCCC2)c1` (stereo not given), the survival was inactive: 83%. For `O=C(Cn1nc(-c2ccc(Cl)cc2)c2ccccc2c1=O)Nc1cccc(Br)c1`, the survival was active: 28%. In the case of `CCCCC(=O)Nc1c(C(=O)N2CCN(c3ccccc3F)CC2)oc2ccccc12`, the survival was inactive: 79%. In the case of `Cc1nc(C)c(CC(=O)O)c(=O)[nH]1`, the survival was inactive: 75%. In the case of `COc1ccc(CNC(=O)C2CCN(c3nnc(-n4c(C)ccc4C)s3)CC2)c(OC)c1`, the survival was inactive: 87%. For `Cc1nc2ccc(S(=O)(=O)N(C)CC(=O)Nc3ccc(C(C)C)cc3)cc2s1`, the survival was inactive: 113%. For `Cc1ccccc1Cn1c(COc2ccc(Cl)cc2)nc2ccccc21`, the survival was inactive: 114%. In the case of `O=C(Nc1cccc(F)c1)C1CCCN(S(=O)(=O)c2cccc3cccnc23)C1` (stereo not given), the survival was inactive: 70%. With `CSc1ccccc1NC(=O)CSc1ncccn1` the survival was inactive: 108%. `COc1ccc(-c2nnc(SC(C)C)n2-c2ccccc2)cc1` was tested, and the survival was inactive: 112%. For `CC1CCN(C(c2ccccc2)c2sc3nc(-c4ccco4)nn3c2O)CC1` (stereo not given), the survival was inactive: 72%. In the case of `O=C(CSc1nc(-c2ccccc2)cn1-c1ccccc1F)Nc1ccc(F)cc1`, the survival was inactive: 81%. In the case of `COc1ccc(CNS(=O)(=O)c2cc3c(cc2Cl)N(C(C)=O)CCO3)cc1`, the survival was inactive: 74%. With `Cc1ccc(Nc2cc(C(=O)NCCc3ccccc3)c3ccccc3n2)c(C)c1` the survival was inactive: 76%. In the case of `COc1cc(NC(=O)CN2CCN(S(=O)(=O)c3ccc(Br)cc3)CC2)cc(OC)c1`, the survival was inactive: 99%. In the case of `O=C(Cn1c(C(=O)NCC2CCCO2)cc2sccc21)c1ccccc1` (stereo not given), the survival was inactive: 103%. For `COc1ccc(NC(=O)CSc2nc(-c3cc(OC)c(OC)c(OC)c3)[nH]c2-c2ccc(F)cc2)cc1`, the survival was inactive: 56%. With `COc1ccc(-c2nc(SCC(=O)NC(C)CCc3ccccc3)n[nH]2)cc1` (stereo not given) the survival was active: 17%. For `COc1ccc(S(=O)(=O)c2c(Nc3cccc(C)c3C)sc(C(=O)c3ccccc3)c2N)cc1`, the survival was inactive: 75%. With `CCOC(=O)c1c(C)oc2nc(C)nc(NCCc3ccc(OCC)c(OCC)c3)c12` the survival was inactive: 83%. With `COC(=O)c1ccc(NC(=O)CSc2cn(CC(=O)N3CCCCC3)c3ccccc23)cc1` the survival was inactive: 71%. For `COc1ccc(N2CCN(c3ncnc4c3cnn4-c3ccc(F)cc3)CC2)cc1`, the survival was inactive: 87%. In the case of `CCN(CC)C1=C(C(=O)c2ccccc2)NS(=O)(=O)c2ccccc21`, the survival was inactive: 76%. With `CC1CCN(S(=O)(=O)c2ccc3c(c2)c(=O)c(C(=O)N2CCN(c4cccc(Cl)c4)CC2)cn3C)CC1` the survival was inactive: 89%. For `O=C(CN(Cc1ccccc1)C(=O)Cn1nnc(-c2ccc(F)cc2)n1)NC1CCCC1`, the survival was inactive: 70%. With `O=C1c2ccccc2-c2onc3c(Oc4ccccc4)cc(O)c1c23` the survival was inactive: 96%. For `COc1ccc(NC(=O)CN2CCN(CC(=O)Nc3ccccc3F)CC2)c(OC)c1`, the survival was inactive: 86%. For `O=c1c2cc3c(cc2nc2sc(Nc4ccccc4)nn12)OCO3`, the survival was inactive: 54%.

Source: PubChem BioAssay AID463173 (ICCB-Longwood Screening Facility, Harvard Medical School, 2010)
